Measurements taken from article PMC8237258 (Journal of Medicinal Chemistry, 2021).
Where a SMILES comes first, the peptide text is derived from it. Bridges are numbered along the chain shown (N, C = ends).

Legend:
[1] = in vitro, simulated intestinal conditions / intestinal environment; cited from earlier work
[2] = cited from earlier work
[3] = SIF
Experimental: . Simulated gastric fluid (SGF) was prepared by dissolving 20 mg of NaCl and 8 mg of pepsin in 70 μL of concentrated HCl (32%), and the volume was diluted to 10 mL with water (pH 1.3).[36] Simulated intestinal fluid (SIF) was prepared by dissolving 68 mg of KH2PO4 in 500 μL of water followed by the addition of 800 μL of 0.2 M NaOH and 100 mg of porcine pancreatin, and the volume was adjusted to 10 mL with water (pH 6.8).[36] Peptide stock solution (2 mg/mL in water, 15 μL) was diluted in 285 μL of SGF or SIF and incubated at 37 °C. Aliquots (30 μL) were withdrawn at 0 min, 5 min, 15 min, 30 min, 1 h, 2 h, 4 h, and 8 h and subsequently quenched with 30 μL of 0.2 M Na2CO3 (SGF) or 10% aqueous TFA (SIF). The samples were centrifuged, and the supernatant (15 μL) was analyzed by analytical HPLC. The remaining peptide was determined by measuring the peak area and expressing it as a percentage of the peak area at the 0 h time point. Peptide half-life (t1/2) was determined from the degradation profiles and calculated using Prism 7 (GraphPad, La Jolla USA), assuming an exponential one-phase decay.

Row | Compound | time within which degraded [1] | time stable in the gastric environment [2] | relative stability among the newly designed analogues [3]
1 | C[C@@H]1NC(=O)[C@@H]2CCCN2C(=O)[C@H](CC(N)=O)NC(=O)[C@@H]2CSSC[C@H](N)C(=O)N[C@H]3CSSC[C@H](NC1=O)C(=O)N[C@@H]([C@@H](C)O)C(=O)NCC(=O)N[C@H](C(=O)N[C@@H](Cc1ccc(O)cc1)C(=O)O)CSSC[C@H](NC(=O)[C@H](Cc1ccc(O)cc1)NC(=O)[C@H](CCC(=O)O)NC3=O)C(=O)N2 [Linaclotide] (H-CCEYCCNPACTGCY-OH; disulfide 1-6, 2-10, 5-13 (inferred)) | ≤ 1 h | at least 3 h | –
2 | C[C@@H]1NC(=O)[C@@H]2CCCN2C(=O)[C@H](CC(N)=O)NC(=O)[C@@H]2CSSC[C@@H]3NC(=O)[C@H](Cc4ccc(O)cc4)NC(=O)[C@@H]4CSSC[C@H](NC(=O)[C@H](Cc5ccc(O)cc5)NC(=O)[C@H](CCC(=O)O)NC(=O)[C@H](CSSC[C@H](NC1=O)C(=O)N[C@@H]([C@@H](C)O)C(=O)NCC(=O)N4)NC3=O)C(=O)N2 [[cyclic]-Linaclotide] (cyclo(ACTGCYCCEYCCNP); disulfide 2-8, 5-11, 7-12) | – | – | least stable
